# Test results published in the supplement of paper PMC4466236.
# In all, about 33,000 sequences were measured (“E-score (dimensionless, -0.5 to 0.5)”: median about -0.058, highest 2% from about 0.35 on). The list shows a part of the results.
# Test system: MvaT
# Experiment: PBM 8-mer E-score (mean of HK and ME arrays) (E-score (dimensionless, -0.5 to 0.5)); higher = stronger relative binding preference; most listed sequences are background and not binding sites
# Experimental: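 Protein binding microarray: GST-tagged full-length MvaT (P. aeruginosa PAO1) bound to two universal double-stranded 60-mer arrays (ME and HK), each with a constant 25-mer primer and a variable 35-mer region covering all 8-mers. The 8-mer E-score (rank-based, range -0.5 to 0.5, >0.45 = specific binding) is the mean of the two arrays.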
row,Sequence,PBM 8-mer E-score
1,AGTCCATC,-0.197
2,GTCGCTTA,0.0162
3,GTGCCCTA,-0.297
4,AATCCCAG,-0.071
5,CTAGCGAC,-0.259
6,TATCGGAA,0.189
7,ACCTGGCT,-0.195
8,AACATGAC,0.0169
9,CGTCGCGA,-0.229
10,GCAGTATA,0.287
11,GAGTACGA,-0.082
12,GCCATGGA,-0.00887
13,TCGGCTCA,-0.245
14,CTATTTAA,0.274
15,ACTGCTCG,-0.127
16,TAGGAATA,0.197
17,ACATAGCA,-0.0283
18,AGTTAAGG,0.135
19,ATCGCGGG,-0.119
20,AGTCTGAG,-0.0908
21,CCAGTACG,-0.224
22,GCAGAAGA,-0.0597
23,AGACATAA,0.164
24,ATTTTATG,0.234
25,CTACGTGC,-0.135

row,Sequence,PBM 8-mer E-score
1,CCGTATAG,-0.0465
2,GTCTTTAA,0.146
3,GGTTGTAA,0.141
4,CCGAATGC,-0.127
5,TCCTAGCA,-0.182
6,TTCAAGAA,-0.0313
7,CGGGCCGA,-0.202
8,CTGCCAAG,-0.215
9,AGAAAAAG,0.0842
10,GAAGGCCC,-0.379
11,CCTTCCCG,-0.14
12,GCGGGGAA,-0.103
13,AGGGAAGC,-0.183
14,TCGAGAAA,0.0629
15,AGTCAGGA,-0.0418
16,CACTAAGA,0.0784
17,CGGGCCAA,-0.118
18,ATCCTGTC,-0.176
19,ATAGCTCA,-0.0497
20,AACATAGT,0.25
21,GCATAAAC,0.105
22,CTAAGTAC,0.0477
23,AAGAGGAC,-0.0662
24,CACATCAC,-0.0635
25,AGCTGATA,0.113

row,Sequence,PBM 8-mer E-score
1,AAAAAGAC,0.105
2,TCAGACGA,-0.099
3,CACCTTTC,-0.0352
4,TCACCCGA,-0.148
5,AGAGCAAT,-0.0516
6,AAGAGCGG,-0.0342
7,ATGGTCCC,-0.228
8,CGGTACTC,-0.119
9,GACATTGC,-0.0274
10,ATATTTAA,0.462
11,CTGGGTGA,-0.218
12,GCAACGCA,-0.168
13,ATCGTAAA,0.053
14,GGCGTGTA,-0.134
15,ACTTTTTA,0.309
16,AAGATAAC,0.156
17,TGCCCTAA,-0.201
18,CGGTGTCC,-0.201
19,ACGTAGCT,-0.0562
20,GCAGCGCC,-0.366
21,ACTGCTAT,0.0955
22,CACAGCAA,0.133
23,ACCGGTAT,0.117
24,CGACGTAA,-0.0197
25,GTCCCCGA,-0.174

row,Sequence,PBM 8-mer E-score
1,CGACTCAA,-0.0083
2,ATCCTGAA,0.0306
3,AGACATCG,-0.159
4,CGATTACA,0.178
5,ATGCCAAA,-0.0996
6,CGGTAAAC,0.0615
7,AAGGTGGA,-0.0298
8,AATGGCGC,0.0067
9,CGCTTTGA,-0.0139
10,AGGGGACC,-0.235
11,ATAATAAA,0.451
12,TACCATCA,-0.0879
13,GGGTAAGA,-0.00473
14,AACTCGCG,-0.0197
15,CTAATACC,0.167
16,GCCTACTA,-0.023
17,ATTAGTTG,0.321
18,ACTAGTCC,-0.0112
19,ACGCTTAA,0.22
20,ACACCAGC,-0.13
21,GCGCAAGC,-0.198
22,ACTCGGTC,-0.211
23,TAGACTCA,-0.0671
24,CCATCACA,-0.0555
25,CACGGATG,-0.225

row,Sequence,PBM 8-mer E-score
1,AACTGATG,0.0546
2,GAACATTA,0.276
3,ATTGCCTG,0.0246
4,AGGGCCTG,-0.226
5,CGAGTCTA,-0.126
6,TCAAATCA,0.116
7,CAAGGGGA,-0.126
8,AAAGGGTA,-0.0374
9,AAGCGCCC,-0.118
10,CTGCCCGA,-0.105
11,AAAAACCT,0.106
12,AGTATTAG,0.27
13,CGGTGACC,-0.323
14,AGCAACCA,0.0355
15,AAATCGGC,-0.0057
16,ACTCACCT,-0.104
17,GTTGCTCA,-0.0849
18,GAGTTTCC,-0.216
19,CGGGACAG,-0.151
20,AGCGCCAA,-0.026
21,GTTACCAA,0.0154
22,ACAGAGTC,-0.197
23,AAAGAGCA,0.000865
24,ACGCGCGA,-0.00121
25,AACTCATA,0.144

row,Sequence,PBM 8-mer E-score
1,AGTTATAT,0.437
2,CCGAGAGA,-0.211
3,CGGACAGC,-0.207
4,ACTCTAGG,-0.0989
5,GAACTATA,0.308
6,GTACGAAA,0.0985
7,AGTTTTGA,0.173
8,AAATCTAA,0.209
9,CGGGGGGC,-0.256
10,GGGCCCAA,-0.295
11,CACGTGTC,-0.0855
12,GGGATTGA,-0.0975
13,ACTCTAAT,0.277
14,GATCCTCC,-0.202
15,GCAGCAAA,-0.00143
16,ACTCCAAC,0.000945
17,GTGCCAGA,-0.146
18,GGCTCGAC,-0.248
19,GCCTCACC,-0.237
20,CAGTATGC,-0.115
21,AGTGTAAA,0.249
22,TATCTCGA,0.17
23,CGCTTGGA,-0.206
24,AGAGGCCT,-0.302
25,AAGGTTGC,-0.221

row,Sequence,PBM 8-mer E-score
1,ATCGATGG,0.00882
2,CGGTATAC,0.173
3,GGTATGCA,-0.0553
4,CCATATTC,0.161
5,ATCAGCCC,-0.126
6,CAATGTCC,-0.106
7,ACCTTCGG,-0.338
8,GCTATAAC,0.13
9,AGGAAGGC,-0.356
10,GTGTTTCA,0.0552
11,AAAGGAAA,-0.203
12,ATGTAACA,0.293
13,CTCGGCGA,-0.109
14,GGGCCACC,-0.382
15,CCCCACCC,-0.325
16,CCCTACGC,-0.234
17,CTTCAGAA,0.00741
18,GCCTGAAC,-0.184
19,TCCGCGAA,-0.106
20,AGAACTGC,-0.0868
21,GACAGTTA,0.204
22,AGATCACG,-0.151
